Test results reported in the supplement of paper PMC11417369.
The list shows a part of the results.

The sequences below were run on PfAP2-HC AP2 domain (GST-tagged) (assay: gcPBM binding intensity (ln(normalized median fluorescence intensity)); higher = stronger DNA binding).
Method in brief: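 Binding intensity is the highest Masliner-normalised natural-log median intensity over replicate spots in either probe orientation. To obtain it, GST-tagged P. falciparum DNA-binding domains made in E. coli were incubated for 1 h on an Agilent 4 × 180k array of primer-extended double-stranded 36-bp intergenic genomic probes plus negative controls. Detection used Alexa488 anti-GST antibody with scanning at 488 nm.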

| Sequence | gcPBM binding intensity (ln) |
| --- | --- |
| ATACATTTTTTTTATACGCACACGTCATACTTTTAA [CACACA_site1638] | 10.5 |
| ATATAATAGAAGTGTACACACATATTTATGTCTGTA [CACACA_site3121] | 9.98 |
| ACAAGACAGATATATACACACATACATACATACATA [CACACA_site7472] | 9.97 |
| ATATTTATTTATATTACACACATGTGCAATTAAACT [CACACA_site6928] | 10 |
| TTTCTTAAAAAAAAAAAAAAAAGAAGATAAATAAAA [CACACA_negctrl_site289] | 9.2 |
| TTTAACTTATTCAATGCACACATTTTAATAAGATAT [CACACA_site1967] | 9.64 |
| CTAGCAAATACATACACACACACACCGATACATATA [CACACA_site9164] | 10.7 |
| ATATATAATAATATATGTACATAATATTTTTTTTTT [XGTACX_site1941] | 9.69 |
| TAATGAAGATATATAACACACAAAAGTTATAAATAT [CACACA_site6678] | 9.96 |
| GCCATTAATTTATACACACACATTAAAATTTTTTAT [CACACA_site4575] | 10 |
| GCTATAAATACAGACGCACACATATACATACATATA [CACACA_site3329] | 10.2 |
| TAATTATAAAAATAAAACAACCAAATTTGTTATATA [CACACA_negctrl_site750] | 9.58 |
| TAATTTATAAATAATTGTACATAGTTTATTTAGATT [XGTACX_site4599] | 9.39 |
| ATATATATAAAATAAAGTACCCGTAAAACCTATATG [XGTACX_site6937] | 9.74 |
| AAAAAAAAAAAAAAAAAATAATAAAAAATAAAAAAA [GTGCAC_negctrl_site341] | 9.24 |
| GACGACTATATTAATTGTACTCAATTTAAGCATAAT [XGTACX_site2750] | 9.58 |
| TATGTTAATCCTATTTGTACATATAATCGAATTAAA [XGTACX_site7090] | 9.12 |
| GAAAGGAAAAGTTGAACACACAAAGTAAACTATAAG [CACACA_site3535] | 9.82 |
| TCATTCGAATAAATTGCACACATGACATCCGTTGTA [CACACA_site2587] | 9.77 |
| AAAAAAAAAAAAAATATACACACTAATATATTTTTT [CACACA_site815] | 9.68 |
| ATATATATATTAATTACACACAAAAAAAAAAAAAAA [CACACA_site1165] | 9.56 |
| GTATAGAGAAAAAACTGTACTTTATATAAATATTTA [XGTACX_site3972] | 9.52 |
| TATATACAGATATATACACACATATTTATATTTTAT [CACACA_site7734] | 9.92 |
| TATTAATAATATAATAGTACTTTCACTGTAAATTTA [XGTACX_site6419] | 9.32 |
